Experimental data from the RNAGym collection of RNA variant scans (doi:10.7554/elife.90254).
Read counts are not given, so values of variants with three or more changes are uncertain.

B1: LINE1-mini (parent)
chain: GGCAGAGCUCAACACAGCGUGGCAAAGUGGCUGUGGCUAGACUGCC

Variants of: B1
Assay: self-cleavage, relative activity (ratio to wild type); higher = more cleavage; in vitro, sequencing; the parent is a self-cleaving ribozyme
For C3U G5A C8G A25C G27C, the self-cleavage was 0.01.
Work on A4C A16G A26U G36U yielded a self-cleavage of 0.08.
With C3U G5U A12U C13U C37G the self-cleavage was 0.54.
C3U G5C G21A gave a self-cleavage of 0.51.
Variant C3U G5A G27U G36A has a self-cleavage of 0.39.
Work on A4C A11U U34G G35C C46G yielded a self-cleavage of 0.02.
Work on A4C A11C A25G G30C G36U yielded a self-cleavage of 0.01.
Work on C3U G7U C8G G21C U38G yielded a self-cleavage of 0.1.
C3U G5C C13A A26G showed a self-cleavage of 0.06.
C3U G5U G17U G35U showed a self-cleavage of 0.1.
C3U G35U C42A U43A C45G C46A gave a self-cleavage of 0.14.
Variant C3U G35U G36U has a self-cleavage of 0.76.
In the case of C3U G5U U9C G33A G35A A39C, the self-cleavage is reported as 0.01.
With A4C A6G C31U G36C C42G the self-cleavage was 0.01.
In the case of C3U G17U G33U, the self-cleavage is reported as 0.06.
For C3U U9G A12G G21U, the self-cleavage was 0.07.
Variant C3U G22A U32C U43G has a self-cleavage of 0.08.
For C3U G33C G40A, the self-cleavage was 0.11.
For A4C A12U U20C G30U G40U, the self-cleavage was 0.08.
C3U G17U C18G gave a self-cleavage of 0.12.
For A4C A6G G30A, the self-cleavage was 0.15.
C3U G5A A14G G17C G19A gave a self-cleavage of 0.07.
In the case of C3U G27A C46A, the self-cleavage is reported as 0.18.
C3U U43C C45U gave a self-cleavage of 0.1.
Work on A4C A6G C10A C23U A26U U38A yielded a self-cleavage of 0.02.
Variant C3U G5C G44A has a self-cleavage of 0.15.
In the case of C3U G5A A6C G7A A24U G40U, the self-cleavage is reported as 0.05.
C3U U32A C37U showed a self-cleavage of 0.06.
Variant C3U U32C G40C has a self-cleavage of 0.08.
Work on C3U G27C C31U yielded a self-cleavage of 0.02.
For A4C A16U C23G, the self-cleavage was 0.24.
In the case of C3U C23G C31A, the self-cleavage is reported as 0.17.
Variant A4C A16G G22C has a self-cleavage of 0.02.
Work on C3U G40C A41C C46G yielded a self-cleavage of 0.11.
C3U G27A G44A gave a self-cleavage of 1.03.
With C3U U9C C10A U20C the self-cleavage was 0.04.
With A4C A16C G17U G27A G40C G44U C46A the self-cleavage was 0.08.
With A4C A6G A24U G33A the self-cleavage was 0.31.
C3U G22A U28G C37G A41U showed a self-cleavage of 0.02.
C3U C31G C37U showed a self-cleavage of 0.27.
With C3U G5A C15G A25G the self-cleavage was 0.08.
Variant C3U U9G G27C has a self-cleavage of 0.02.
Work on C3U G17A C18G G19U A26U U34A yielded a self-cleavage of 0.04.
Variant A4C A12U U43A has a self-cleavage of 0.02.
Variant C3U G7A G44U C46U has a self-cleavage of 0.06.
C3U G21U G33C A39G gave a self-cleavage of 0.02.
In the case of C3U G29A C31A A39U G40U, the self-cleavage is reported as 0.04.
Work on A4C A16C G35U C45G yielded a self-cleavage of 0.22.
In the case of C3U G19C U20G G21A U32A U34A A41G, the self-cleavage is reported as 0.01.
Variant C3U G7A A25G C42A C46U has a self-cleavage of 0.
In the case of C3U U34C C37U A39C C46A, the self-cleavage is reported as 0.05.
With A4C A6C U20G G21U G22A A25G A41G the self-cleavage was 0.13.
In the case of A4C A11C A26U, the self-cleavage is reported as 0.03.
C3U G5A G36A showed a self-cleavage of 1.5.
C3U U9A G17A A25C U32G A39G U43G gave a self-cleavage of 0.05.
For C3U U20C A25G G29A U32G, the self-cleavage was 0.05.
A4C A16C G17C gave a self-cleavage of 0.09.
With A4C A12C G21U U28A G33U the self-cleavage was 0.12.
In the case of C3U G7A G17U C42U G44C, the self-cleavage is reported as 0.08.
C3U G5C C8G C13U G17C G30A G33C C46G showed a self-cleavage of 0.06.
In the case of C3U G22U G33U C42A, the self-cleavage is reported as 0.15.
C3U U28A G33C showed a self-cleavage of 0.09.
C3U U28A G33A gave a self-cleavage of 0.05.
Variant C3U C42A G44C C45U has a self-cleavage of 0.06.
In the case of C3U U9G A11U A41U, the self-cleavage is reported as 0.02.
For C3U U28C G30U, the self-cleavage was 0.12.
A4C A14G U20G showed a self-cleavage of 0.67.
A4C A12C C45G showed a self-cleavage of 0.01.
C3U U9C C15G G17C G21C G27C G29A C42G gave a self-cleavage of 0.01.
With C3U G5U G7U C23G the self-cleavage was 0.19.
Work on C3U G22C C31G C42U yielded a self-cleavage of 0.18.
C3U G21C A39C showed a self-cleavage of 0.06.
For C3U G19C U32C, the self-cleavage was 0.09.
In the case of C3U C31A C37A, the self-cleavage is reported as 0.05.
For C3U G30U C37G, the self-cleavage was 0.04.
In the case of C3U G7A C23A U32G, the self-cleavage is reported as 0.07.
For A4C A16C G40U, the self-cleavage was 0.47.
With C3U G7C G19A G30C the self-cleavage was 0.18.
For C3U G40C G44A C45A, the self-cleavage was 0.02.
C3U G5U G21A gave a self-cleavage of 0.31.
C3U G40C A41U showed a self-cleavage of 0.04.
For C3U G17U C23A A24G A26G, the self-cleavage was 0.02.
Work on A4C A11U G29C A39C C42A yielded a self-cleavage of 0.
With C3U G7U C8G G36A G40C the self-cleavage was 0.05.
For C3U G5C G7U C15G G22U G36A, the self-cleavage was 0.82.
In the case of A4C A14U C42U C45G, the self-cleavage is reported as 0.02.
Work on C3U G5A A25C C45A yielded a self-cleavage of 0.05.
With C3U G17A U20A C23A the self-cleavage was 0.03.
C3U G36U C46U showed a self-cleavage of 0.13.
C3U G7U C8U U32C showed a self-cleavage of 2.32.
In the case of C3U U9A G36C, the self-cleavage is reported as 0.03.
In the case of C3U G21U G40C, the self-cleavage is reported as 0.05.
C3U U9A A25U showed a self-cleavage of 0.12.
A4C A16G U38C showed a self-cleavage of 0.03.
Variant C3U G5C A12U has a self-cleavage of 0.14.
Work on A4C A6G C8A A41C C46A yielded a self-cleavage of 0.16.
A4C A14C G21U A25G C45U gave a self-cleavage of 0.03.
Variant C3U G7U G19U has a self-cleavage of 0.14.
Work on C3U G30U G36C A39U yielded a self-cleavage of 0.41.
With C3U G5A U32A the self-cleavage was 0.06.
For C3U G5U A12C C15A C37G, the self-cleavage was 0.05.
Variant C3U U9C C13G A14U G29A has a self-cleavage of 0.04.
In the case of A4C A6C A14U C18A A26G U28A C37A C45U, the self-cleavage is reported as 0.03.
C3U G5U U9G showed a self-cleavage of 0.47.
Variant C3U G5U U9A has a self-cleavage of 0.16.
Variant C3U G17A C18U G29U G35A has a self-cleavage of 0.03.
A4C A16G U28A C31U showed a self-cleavage of 0.02.
With A4C A6C U34G the self-cleavage was 0.04.
For C3U G7C G17A U20C, the self-cleavage was 0.01.
In the case of A4C A16G G19C G30U, the self-cleavage is reported as 0.04.
C3U U9A G29A G40C C42U showed a self-cleavage of 0.06.
C3U G17U U28G U32C G44A gave a self-cleavage of 0.75.
In the case of C3U G5U C37U, the self-cleavage is reported as 0.22.
Work on C3U U9C C13G C15A G27C yielded a self-cleavage of 0.03.
In the case of A4C A14U A24U, the self-cleavage is reported as 0.05.
In the case of C3U U9G G19U U20C, the self-cleavage is reported as 0.11.
For C3U G7U U9A C10U G21A G36A, the self-cleavage was 0.25.
With C3U G22A C23U A41U C46A the self-cleavage was 0.36.
C3U U20A C23A U32A gave a self-cleavage of 0.03.
A4C A11C A26C G27U C46A showed a self-cleavage of 0.06.
Work on A4C A14U G36U yielded a self-cleavage of 0.06.
Work on C3U G5U A11C yielded a self-cleavage of 0.06.
For A4C A11U G36A C45U, the self-cleavage was 0.01.
In the case of C3U G35C U43C, the self-cleavage is reported as 0.08.
For C3U G17C G44C C45A, the self-cleavage was 0.08.
Work on A4C A6U C10A G35A G36U yielded a self-cleavage of 0.13.
C3U U9G C23G showed a self-cleavage of 0.13.
For A4C A6G G7A G22C, the self-cleavage was 0.3.
A4C A6G U32C A39U G40A C42G U43G gave a self-cleavage of 0.01.
With C3U G22C C31U G35A C42U the self-cleavage was 0.01.
In the case of A4C A6G G44C, the self-cleavage is reported as 0.08.
In the case of C3U G5U G17C G35U, the self-cleavage is reported as 0.02.
C3U G7U C13A G35A showed a self-cleavage of 0.15.
Work on A4C A14U G19C G22U yielded a self-cleavage of 0.05.
With C3U G7U U9A A16U A26C the self-cleavage was 0.04.
Variant A4C A11C U34G has a self-cleavage of 0.01.
With C3U G22U A24U the self-cleavage was 0.58.
With C3U G7U C8U U9A C23A the self-cleavage was 0.33.
Variant C3U U28C U34A A39U has a self-cleavage of 0.03.
In the case of C3U U9A C18U G22C G27A, the self-cleavage is reported as 0.03.
A4C A6C C8G A26C gave a self-cleavage of 0.03.
For A4C A12C G21U G29U G35C, the self-cleavage was 0.03.
Variant C3U G7A U38C has a self-cleavage of 0.04.
A4C A6U C10A A14U C23A showed a self-cleavage of 0.01.
Work on C3U G21A A25G yielded a self-cleavage of 0.99.
With A4C A12U G27A G33A C45G C46G the self-cleavage was 0.01.
With C3U G21U U28C the self-cleavage was 0.04.
Work on A4C A11G A14U G22C yielded a self-cleavage of 0.1.
For A4C A12C C18U G40C C42G G44U C45U, the self-cleavage was 0.
C3U G5U C8U C31G G36C gave a self-cleavage of 0.23.
Variant C3U G7U U38C has a self-cleavage of 0.19.
Variant A4C A16C U20C has a self-cleavage of 0.08.
With C3U G5U G19U A39U the self-cleavage was 0.03.
A4C A14U U28C G33C showed a self-cleavage of 0.04.
C3U G21U A25G C37G showed a self-cleavage of 0.01.
For C3U G21A A25U U32A A41C G44C, the self-cleavage was 0.04.
With C3U G36A G40U G44C the self-cleavage was 0.09.
With C3U U9G A11C the self-cleavage was 0.04.
Work on C3U G5A A24U U32C U34G A39U yielded a self-cleavage of 0.03.
Work on C3U G17A G35A yielded a self-cleavage of 0.02.
For C3U G29U G33C C45G, the self-cleavage was 0.03.
Variant C3U G19A C23U has a self-cleavage of 0.24.
Variant C3U G5C C15A U28A A41C C45G has a self-cleavage of 0.07.
In the case of C3U G7U G19U U43A, the self-cleavage is reported as 0.63.
C3U U9G C37G gave a self-cleavage of 0.05.
Work on C3U G5C G36U yielded a self-cleavage of 0.86.
With C3U G27C G29C the self-cleavage was 0.06.
